In the test the target is T1, Myc-tagged Uba3-clone 346 (mouse, UniProt Q8C878 224-462, 35S-methionine labeled (in the in vitro translated form)).
T1 construct: Made by in vitro translation for the GST pulldown and expressed in 293T cells for the co-immunoprecipitation; The place of the tag in the chain is a guess; not shown: Myc tag
T1 sequence: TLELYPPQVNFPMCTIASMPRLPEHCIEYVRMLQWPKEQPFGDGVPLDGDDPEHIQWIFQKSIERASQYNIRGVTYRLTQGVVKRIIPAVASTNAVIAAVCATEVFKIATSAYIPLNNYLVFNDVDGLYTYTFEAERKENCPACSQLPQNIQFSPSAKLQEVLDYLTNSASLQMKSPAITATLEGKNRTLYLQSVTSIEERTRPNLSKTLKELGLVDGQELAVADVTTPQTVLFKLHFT
The test is described as follows: GST pulldown of 35S-labelled in vitro translated Myc-346, autoradiography. As for the experimental part:
Eighteen cDNA clones identified in the yeast two-hybrid system were tested in an in vitro glutathione-S-transferase (GST) pulldown assay, as described in Ausubel et al., Current Protocols in Molecular Biology, Greene Publishing Associates, updated November 2003, Chapter 20, Analysis of Protein Interactions, Unit 20.2, Affinity Purification of Proteins Binding to GST Fusion Proteins.
A coupled in vitro transcription and translation system (Promega) was used according to the manufacturer's instructions to produce radiolabeled protein from cDNAs to be tested. Radiolabeled proteins were mixed with either purified GST or GST-SPATIAL. Then, GST-containing protein complexes were purified by centrifugation from the reaction mixtures using glutathione-coated Sepharose beads. Bound proteins were eluted from the beads with SDS-PAGE loading buffer heated to 72-85° C., separated on polyacrylamide gels, and visualized by autoradiography. Specific interactions between GST-SPATIAL and in vitro translated proteins were indicated by the presence of a radiolabeled in vitro translated protein in the GST-SPATIAL-containing samples, but not in the GST-alone samples.

B1: GST alone (other)
chain: not shown
notes: Negative control in the GST pulldown assays; also called glutathione-S-transferase
Turning to B1, the binding result is “no binding”.

For the origin of these results see US20070248589A1 (GOVERNMENT OF THE UNITED STATES OF AMERICA AS REPRESENTED …, published 2007).
